Laboratory results as given in PubChem BioAssay AID1347165 (National Center for Advancing Translational Sciences (NCATS), 2019).
Hit rate of the full screen: of about 220,000 compounds, about 5,700 (2.6%) were called active. The inconclusive results got no clear call from the source; some entries with a clear call stand among them for comparison. Calls follow the shape of the dose curve; as a rule, active = well fitted inhibition curve with a large enough effect; inconclusive = small, poorly fitted or top-dose-only effect; inactive = no such curve, though single readings can be large or run the other way. Potencies of inconclusive entries are doubtful fits and often do not repeat.

Target: Lysine-specific demethylase 5B (Homo sapiens) (UniProt Q9UGL1)
Assay: Primary screen for KDM5B Histone Demethylases FDH-coupled qHTS; also: nearly all actives have a fitted effect of over 70% in size
Settings: FDH-coupled NADH fluorescence (FDH is formaldehyde dehydrogenase); series mostly up to 57.7 µM
Outline: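 Measured: NADH fluorescence change, 30 min, RT. System: KDM5BΔAP 200 nM final, H3K4me3 peptide, α-KG, Fe(II), ascorbate, NAD⁺ plus FDH, pH 7.5 HEPES. Compounds: titrated, 10 min pre-incubation with enzyme.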
Potency is read from the fitted curve at half-maximal effect; tags tell the direction and shape of the fitted curve.

Sequence of UniProt Q9UGL1 (Q9UGL1 whole entry, looked up): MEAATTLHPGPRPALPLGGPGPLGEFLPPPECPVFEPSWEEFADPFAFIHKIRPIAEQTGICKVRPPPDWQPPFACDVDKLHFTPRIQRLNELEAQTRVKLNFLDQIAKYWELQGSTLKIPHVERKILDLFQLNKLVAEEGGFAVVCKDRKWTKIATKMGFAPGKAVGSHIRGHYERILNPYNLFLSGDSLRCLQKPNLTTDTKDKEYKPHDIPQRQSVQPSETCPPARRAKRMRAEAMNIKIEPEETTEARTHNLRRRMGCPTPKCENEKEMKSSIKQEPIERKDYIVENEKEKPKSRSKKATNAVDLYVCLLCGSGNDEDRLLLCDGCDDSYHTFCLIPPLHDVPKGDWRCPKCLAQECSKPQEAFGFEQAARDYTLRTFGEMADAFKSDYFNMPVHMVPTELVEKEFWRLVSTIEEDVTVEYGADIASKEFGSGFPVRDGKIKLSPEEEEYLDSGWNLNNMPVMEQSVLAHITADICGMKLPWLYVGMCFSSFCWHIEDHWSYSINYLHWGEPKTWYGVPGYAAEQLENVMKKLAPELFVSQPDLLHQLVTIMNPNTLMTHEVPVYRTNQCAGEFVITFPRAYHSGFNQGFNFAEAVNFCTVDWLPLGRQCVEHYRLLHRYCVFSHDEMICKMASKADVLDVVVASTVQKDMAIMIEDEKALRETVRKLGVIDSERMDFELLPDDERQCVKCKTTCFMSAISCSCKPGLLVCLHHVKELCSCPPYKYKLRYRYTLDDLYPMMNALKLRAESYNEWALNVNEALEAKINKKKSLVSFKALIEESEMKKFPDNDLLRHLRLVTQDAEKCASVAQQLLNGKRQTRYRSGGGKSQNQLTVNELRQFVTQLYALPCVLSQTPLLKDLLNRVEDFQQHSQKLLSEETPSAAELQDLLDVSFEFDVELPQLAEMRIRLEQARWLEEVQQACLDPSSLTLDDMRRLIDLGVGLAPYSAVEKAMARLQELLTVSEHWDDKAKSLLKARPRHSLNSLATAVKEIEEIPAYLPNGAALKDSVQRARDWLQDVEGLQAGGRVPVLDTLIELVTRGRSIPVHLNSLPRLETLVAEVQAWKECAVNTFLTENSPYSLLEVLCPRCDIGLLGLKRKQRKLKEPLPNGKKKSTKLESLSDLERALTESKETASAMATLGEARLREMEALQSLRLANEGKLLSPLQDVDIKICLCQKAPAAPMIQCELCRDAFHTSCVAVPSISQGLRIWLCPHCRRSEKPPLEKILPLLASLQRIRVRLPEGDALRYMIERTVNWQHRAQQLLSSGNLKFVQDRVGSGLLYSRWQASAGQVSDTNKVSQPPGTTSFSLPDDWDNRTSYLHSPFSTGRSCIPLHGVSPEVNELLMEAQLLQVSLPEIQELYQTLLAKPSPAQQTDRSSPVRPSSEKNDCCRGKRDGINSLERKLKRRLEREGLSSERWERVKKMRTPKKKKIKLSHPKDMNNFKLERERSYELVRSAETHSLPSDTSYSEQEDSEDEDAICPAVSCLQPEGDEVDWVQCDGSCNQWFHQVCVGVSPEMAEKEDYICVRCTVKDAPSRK

Compound	Potency
Cc1nc(-c2ccc(C)c(N3CCN(C(=O)Nc4ccccc4C(F)(F)F)CC3)c2)no1	inactive
COc1ccccc1C(=O)NC1CCN(c2cc(C(F)(F)F)ncn2)CC1	inactive
O=C(NCCc1ccccc1)c1ccc(CSc2nc3cccnc3n2Cc2ccc(F)cc2)cc1	inconclusive: 35.5 µM [inhibitor, partial curve, poor fit]
CCOC(=O)C1CC1CN1CCCC2(Cc3ccccc3CNC2=O)C1 (stereo unspecified)	inactive
O=C(COc1ncnc2c(Cl)cc(Cl)cc12)N1CCCCCC1	inactive
Cc1nc2nc(SCC(=O)c3ccc4c(c3)OCO4)[nH]c2cc1Br	inactive
CC(=O)Nc1ccc(OCCC2CCCCC2)cc1	inactive
Cn1cnc2cc(-c3ccc(F)cc3)cc(C(=O)NCCc3ccccn3)c21	active: 28.2 µM
COCCC(=O)N[C@@H]1CN(Cc2cccnc2)C[C@H]1CN(C)C	inconclusive: 39.8 µM [inhibitor, partial curve, poor fit]
COc1ccc(C(=O)N[C@@H]2CCC[C@@H]2C(=O)NCCc2c[nH]c3ccc(OC)cc23)cc1	inactive
O=C1CCN(C(=O)C2CCCCC2)CCCC(c2nc(-c3cccnc3)no2)CCN1 (stereo unspecified)	inactive
Cn1ccc2ccc(-c3nc(C4CCOC4)no3)cc21 (stereo unspecified)	inactive
Cc1ccc(F)c(NC(=O)CCc2c(C)nc(C)[nH]c2=O)c1	inactive
COc1c(Cl)cccc1-c1cn2ccc(C)cc2n1	inconclusive: 35.5 µM [inhibitor, partial curve, poor fit]
COc1cccc(NC(=O)N2CCN3C(=O)N(C)C[C@H]3C2)c1	inactive
CCOc1ccc(N2CC(NC(=O)C(=O)c3c[nH]c4ccccc34)CC2=O)cc1 (stereo unspecified)	inconclusive: 17.8 µM [inhibitor, partial curve, poor fit]
CCn1c(=O)cc(SCC(=O)NCc2ccc(F)cc2Cl)c2ccccc21	inconclusive: 22.4 µM [inhibitor, single point]
COc1ccc(C2NC(=O)N(C)C3=C2C(=O)N(c2cccc(Cl)c2)C3)cc1 (stereo unspecified)	inconclusive: 28.2 µM [inhibitor, partial curve, poor fit]
CCc1ccc(Sc2cc(C(=O)NCc3cccc(OC)c3)c3ccccc3n2)cc1	inconclusive: 25.1 µM [inhibitor, partial curve, poor fit]
O=C(CO)NC1CC(=O)N(Cc2ccccc2C(F)(F)F)C1 (stereo unspecified)	inconclusive: 35.5 µM [inhibitor, single point]
COC[C@@H]1CN(C(=O)c2occc2C)C[C@H]1c1nc(C2CC2)no1	inactive
CCc1ccc(Sc2cc(C(=O)NCc3ccccc3OC)c3ccccc3n2)cc1	inconclusive: 17.8 µM [inhibitor, partial curve, poor fit]
CCOC(=O)c1ccc(N2C(=O)c3n[nH]c(C)c3C2c2ccc(C(=O)OC)cc2)cc1 (stereo unspecified)	inactive
CC(=O)Nc1ccc(S(=O)(=O)N[C@H]2CO[C@H]3[C@@H]2OC[C@@H]3Nc2nccc(-c3ccco3)n2)cc1	active: 22.4 µM

Compound	Potency
CCN1CCN(c2ccc(NC(=O)c3cccc(S(=O)(=O)NCc4ccco4)c3)cc2)CC1	inactive
Clc1ccc(-c2noc(-c3cc(-c4ccco4)n[nH]3)n2)cc1	inconclusive: 25.1 µM [inhibitor, single point]
COc1ccc(C(=O)N2CCN(c3cc(-c4ccc(F)cc4)[nH]n3)CC2)cc1	inactive
O=C(Cn1c(=O)n(Cc2ccc3c(c2)OCO3)c(=O)c2sccc21)N1CCCC1	inconclusive: 39.8 µM [inhibitor, single point]
Cc1ccc2[nH]c(=O)c(CCC(=O)N3CCN(CC(C)C)CC3)cc2c1	active: 22.4 µM
COc1ccc(Cl)cc1NC(=O)c1cc(S(=O)(=O)NC2CCCCCC2)ccc1F	inconclusive: 39.8 µM [inhibitor, single point]
COc1ccc(/C=C/C(=O)Nc2ccc3c(c2)Cc2ccccc2-3)cc1	inconclusive: 39.8 µM [inhibitor, partial curve, poor fit]
Cc1oc2cc(O)ccc2c(=O)c1Oc1ccccc1	inconclusive: 22.4 µM [inhibitor, partial curve, poor fit]
CCCCN1CCN(C(=O)c2cc(NC(=O)C3CCC3)cc3nc(C)ccc23)CC1	active: 31.6 µM
O=C(Nc1ccc2ncnc(N3CCCC3)c2c1)c1ccc(Cl)s1	inconclusive: 39.8 µM [inhibitor, single point]
Cc1ccc(-c2cc(C(=O)NC3CCCCC3C)c3ccccc3n2)cc1C (stereo unspecified)	inactive
O=C(N1CCCCC1)C1(c2ccc(Cl)cc2)CCOCC1	inactive
CCc1nc2c(c(-c3ccc(Cl)cc3)n1)CN(C(C)=O)CC2	inconclusive: 35.5 µM [inhibitor, partial curve, poor fit]
Cc1ccc(NC(=O)c2ccc(-c3cccc(Cl)c3C)o2)cc1	inconclusive: 31.6 µM [inhibitor, partial curve, poor fit]
COc1ccc(-c2cc(N3CCCC(NC(=O)c4ccc(C(F)(F)F)cc4)C3)n[nH]2)cc1 (stereo unspecified)	inconclusive: 31.6 µM [inhibitor, partial curve, poor fit]
COCCN1CN=C(Nc2nc(C)c3cccc(OC)c3n2)NC1	inconclusive: 22.4 µM [inhibitor, partial curve, poor fit]
COc1ccc(OC)c(CNC(=O)c2cc3c(-c4ccc(OC)c(OC)c4)nn(C)c3s2)c1	inconclusive: 31.6 µM [inhibitor, partial curve, poor fit]
Cc1noc(C)c1-c1cnc2[nH]cc(CC(=O)NCc3cccnc3)c2c1	active: 35.5 µM
CCCn1c(-n2nc(C)cc2C)nc2c1c(=O)n(Cc1cccc(Cl)c1)c(=O)n2C	inactive
O=C1Nc2ccc(-c3ccccc3F)cc2C(=O)N2CCN(C(=O)COc3ccccc3)C[C@H]12	inconclusive: 25.1 µM [inhibitor, single point]
Cc1noc2ncc(C(=O)Oc3ccc4cc(Br)ccc4c3)cc12	inactive
CCOC(=O)c1ccc(N2C(=O)c3[nH]nc(-c4ccc(C)cc4)c3C2c2cccc(F)c2)cc1 (stereo unspecified)	inconclusive: 15.8 µM [inhibitor, partial curve, poor fit]
O=c1c2c3c(sc2[nH]c(=S)n1Cc1ccco1)CCC3	inconclusive: 15.8 µM [inhibitor, partial curve, poor fit]
CCN(CC)C(=O)CSc1nc2ccsc2c(=O)n1C	inconclusive: 39.8 µM [inhibitor, single point]

Compound	Potency
COc1cc([N+](=O)[O-])cc(/C=N/NC(=O)Cn2nccc2C)c1O	inconclusive: 10 µM [inhibitor, partial curve, poor fit]
O=C(COc1cc(O)c2c(=O)cc(-c3ccccc3)oc2c1)NCCCO	inactive
O=C1CC(c2ccccc2)N(C(=O)CNC(=O)c2cc3ccccc3[nH]2)CCCCCN1 (stereo unspecified)	inconclusive: 25.1 µM [inhibitor, partial curve, poor fit]
CC(C)(C)CC(=O)N[C@@H]1C=C(C(=O)NCC(N)=O)C[C@@H](O)[C@@H]1O	inactive
COc1ccc(NC(=O)c2cnc3c(c2)N(C(=O)Cc2ccc(O)cc2)CCC3)cn1	inconclusive: 22.4 µM [inhibitor, partial curve, poor fit]
CN(C)C[C@@H]1CN(c2ncccn2)C[C@H]1NC(=O)c1ccccc1F	active: 28.2 µM
O=C(NCc1nnc2ccc(-c3ccccc3)nn12)c1ccc[nH]c1=O	active: 28.2 µM
Cc1ccsc1C(=O)Nc1ccccc1SCc1ccccc1	inactive
O=C(NCC(=O)N1CCN(c2ccccn2)CC1)c1cncc(Br)c1	inconclusive: 25.1 µM [inhibitor, single point]
Cc1nn(-c2ccc(C(C)C)cc2)c(C)c1[C@@H]1C=C[C@@H](NC(=O)COCC(=O)O)C1	inconclusive: 35.5 µM [inhibitor, single point]
CN(C)CCNc1oc(-c2ccccc2F)nc1S(=O)(=O)c1ccc2c(c1)OCCO2	inconclusive: 39.8 µM [inhibitor, single point]
Cc1cn2cc(CNC(=O)c3ccc(CN4CCCN(C)CC4)[nH]c3=O)nc2s1	active: 28.2 µM
Cc1ccc(C(=O)C(C)OC(=O)CCc2c[nH]c3ccccc23)cc1 (stereo unspecified)	inactive
Cc1nn2c(c1-c1ccccc1OCc1ccccc1)N(Cc1ccccc1O)CCC2	inconclusive: 15.8 µM [inhibitor, partial curve]
CCN(CC)c1cc(CCC(=O)N(C)Cc2ccccc2)ccn1	active: 22.4 µM
O=C1NC(=NC2CCCC2)C2(CCN(CC3CCCCC3)C2)N1c1cc(F)cc(F)c1 (stereo unspecified)	inactive
CCCCOc1ccc(-c2nn(-c3ccccc3)cc2C2NC(=O)NC(C)=C2C(=O)OCC)cc1 (stereo unspecified)	inconclusive: 25.1 µM [inhibitor, single point]
CCCC(=O)N1c2nc(CC)nn2C2(CCCCC2)[C@@H]2CCCC[C@@H]21	inactive
COc1ccccc1N1CN(CCCN(C)C)Cn2c1nc(C)c(C)c2=O	inactive
COc1ccc(Cn2c(C3CCN(C(=O)c4cc(Cl)ccc4F)CC3)n[nH]c2=O)cc1	inactive
COc1cc(OC)c(OC)cc1/C=C1/Cc2ccccc2C1=O	inconclusive: 20 µM [inhibitor, partial curve, poor fit]
Cc1cccc(/C=C(/C#N)c2nc3ccccc3[nH]2)c1	inconclusive: 39.8 µM [inhibitor, single point]
Cc1c(C(=O)NCc2ccco2)oc2c1/C(=N/O)CCC2	inconclusive: 31.6 µM [inhibitor, single point]
